Measured values from ChEMBL document CHEMBL4888484, “Replenishing the malaria drug discovery pipeline: Screening and hit evaluation of the MMV Hit Generation Library 1 (HGL1) against asexual blood stage Plasmodium falciparum ,using a nano luciferase reporter read-out” (2022).
Hit rate of the full screen: of about 150,000 compounds, about 540 (0.36%) showed an effect of 50% or more. Some of the results follow.

The molecules below were run on Plasmodium falciparum (assay: Primary screen in NF54 nanoGlo assay, in single point, at 2uM, 72h; a lower Z score goes with more inhibition). Settings: timepoint 72 hour.
Type: functional, Erythrocyte

| Structure (SMILES) | % Inhibition | Z score |
| --- | --- | --- |
| Cc1cc(NC(=O)CN(C)c2c(F)cccc2F)on1 | -43% | 5 |
| Fc1ccc(CC2CCN(c3ncnc4nc[nH]c34)CC2)cc1F | -7% | 0.89 |
| CCCc1noc(CCCC(=O)Nc2ccc(-n3cc[nH]c3=O)cc2)n1 | -18% | 2.85 |
| Cc1ccc(S(=O)(=O)CCc2noc(C(=O)NCCN3CCCC3)n2)cc1 | -2% | 0.26 |
| Cc1ccc(-c2nccn2CCCO)c(Cl)c1Cl | -8% | 1.23 |
| COc1cccc(CNC(=O)c2ccc(-n3nnc4cccnc43)c(C)c2)c1 | -12% | 1.64 |
| O=C(NCCC1=CCCCC1)c1cccc2sc(N3CCCc4ccccc43)nc12 | -9% | 1.11 |
| c1ccc(C(C[C@H]2CN(Cc3nccs3)CCO2)c2ccccc2)cc1 | -12% | 1.53 |
| Cc1[nH]ncc1CCCNc1noc(C(C)(C)C)n1 | 1% | -0.11 |
| Cn1nccc1[C@H](O)c1cc2n(n1)CCN(c1ncc(Cl)cn1)C2 | -16% | 1.46 |
| CCOC(=O)c1nc(NC(=O)Nc2cc[nH]n2)sc1C(F)(F)F | -5% | 0.86 |
| N#Cc1ccnc(OCC2CCNCC2)c1 | -13% | 1.44 |
| Cc1cc(C(=O)N2CCC3(CC2)NC(=O)NC3=O)c2ccccc2n1 | -6% | 0.48 |
| Cc1cc(C)nc(-c2cccc(C(=O)NCCCn3cccn3)c2)n1 | 5% | -0.78 |
| Cc1ccc(CNS(=O)(=O)c2cc3n(c2)CCN(C)C3=O)cc1 | -4% | 0.57 |
| COc1ccc(NS(=O)(=O)c2ccc(-c3ccno3)o2)cc1 | -5% | 0.89 |
| COCCC1(c2noc(C3CCOCC3)n2)CCN(CC2CCCCC2)CC1 | 6% | -0.8 |
| O=C(CC1CCCC1)Nc1ccc2[nH]c(=O)[nH]c2c1 | 12% | -1.07 |
| Cc1cccc(CN2CCC[C@@](CO)(CC3CC3)C2)n1 | 10% | -0.95 |
| CNC(=NC[C@@H](C)Cc1ccc(OC)c(OC)c1)NC | -6% | 0.6 |
| Cc1nc2c(N(CCO)Cc3ccccc3)ncnc2o1 | -3% | 0.69 |
| Cc1cc(NC(=O)NCc2ccc(CO)cc2)n(C2CCCCC2)n1 | -9% | 0.82 |

| Structure (SMILES) | % Inhibition | Z score |
| --- | --- | --- |
| CC1CC(C)CN(S(=O)(=O)c2ccc(C(=O)Nc3nc4cc5c(cc4s3)OCCO5)cc2)C1 (stereo not given) | -1% | 0.12 |
| Cc1ccc(-c2nnc3n2CCCC[C@H]3C2CCOCC2)s1 | -13% | 2.52 |
| COc1ccc(Nc2cc(NCc3nccc(C(F)F)n3)ncn2)c(OC)c1 | -13% | 2.46 |
| Cc1nc(N2CCOCC2)sc1CNC[C@H]1CN(C)CCO1 | 40% | -3.35 |
| COc1cc(Cl)ccc1C(=O)N1CCC2(CC[C@@H]2O)CC1 | -17% | 2.15 |
| Cc1nnc([C@H]2CCCN(Cc3cccc4ncccc34)C2)o1 | -1% | 0.11 |
| Cc1n[nH]c(C)c1CCN(C)C[C@H]1COCCO1 | -11% | 1.79 |
| COCCn1cnc2cc(NC(=O)C3CCCCC3)cc(C(=O)N(C[C@H]3CCC(=O)N3)C(C)C)c21 | -5% | 0.9 |
| O=c1[nH]c(NC2CCC2)nc2c1Cc1ccccc1OC2 | -13% | 1.43 |
| CCN(C)C(=O)CC1(Cc2nc3cccnc3n2CC(C)C)CCCC1 | -12% | 1.47 |
| CN(C)c1c(CN(C(=O)c2ccccc2F)C2CC2)c(C(F)(F)F)nn1-c1ccccc1 | -16% | 1.94 |
| O=C(c1cc(-c2cccc(F)c2)ns1)N1CCN(c2ccc(F)cc2)CC1 | -13% | 1.66 |
| Cc1cc(-n2cnnc2[C@H](C)n2cccn2)n(C)n1 | 10% | -1.35 |
| COc1ccc(F)c(F)c1C(=O)NC[C@H]1CCCN(C(=O)c2cccc(N)n2)C1 | -7% | 1.26 |
| O=C(NC1CCCN(CC(F)(F)F)C1)OCC1CCCO1 (stereo not given) | 5% | -0.6 |
| CN(Cc1ccco1)C(=O)CCc1ccc(-c2ccccc2)[nH]1 | -1% | 0.11 |
| COc1cccc(CN2CCc3cc(OC)c(OC)cc3C2C(C)NC(=O)c2ccc(C)cc2)c1 (stereo not given) | -12% | 1.47 |
| O=C(Nc1cccc(O)c1F)[C@H]1COCC(=O)N1Cc1ccccc1 | -5% | 0.81 |
| COCc1cn([C@H]2CCN(S(=O)(=O)c3cccc(C(F)(F)F)c3)C2)nn1 | -3% | 0.51 |
| NC(=O)c1ccccc1NC(=O)CN(C[C@H]1CCOC1)C1CC1 | 8% | -1.01 |
| c1ccc2c(c1)CCN(Cc1ncon1)C2 | -8% | 1.59 |
| COc1cc2c(cc1OC)CN(C(=O)c1ccc(N3CCOCC3)nc1)CC2 | 2% | -0.32 |

| Structure (SMILES) | % Inhibition | Z score |
| --- | --- | --- |
| CCC(O)(CNC(=O)C1CCc2[nH]nnc2C1)c1ccc(Cl)cc1 (stereo not given) | -1% | 0.24 |
| COc1ccccc1C(=O)NC[C@H]1Cn2cc(-c3ccc(C)cc3)nc2CO1 | -2% | 0.33 |
| O=C1CC[C@H](C(=O)NCc2nc(-c3cccc(F)c3)c(-c3ccccn3)[nH]2)N1 | -17% | 2.96 |
| O=C(CCN(CCCN1CCOCC1)c1nc(-c2ccco2)nc2ccccc12)Nc1ccc(F)cc1 | -18% | 2.54 |
| Cc1ccc(S(=O)(=O)N2CCN(C(=O)[C@@H]3CCCN3C(=O)OC(C)(C)C)CC2)cc1 | -10% | 1.28 |
| Nc1ncnc(N2C[C@@H](F)C[C@H]2CO)c1Cl | 8% | -1.1 |
| O=C(c1cncnc1)N1CC[C@H](c2nc3cc(F)ccc3[nH]2)C1 | 20% | -2.34 |
| COc1ccc2c(c1)C[C@@H](NC1CCN(C(=O)Nc3ccccc3)CC1)CC2 | -4% | 0.82 |
| COc1ccc(NC(=O)COc2c[nH]c(C)cc2=O)cc1N1CCCCS1(=O)=O | -3% | 0.42 |
| CNCC(=O)Nc1ccc(-c2ccc(C)c(C(F)(F)F)c2)cn1 | 4% | -0.36 |
| CCN(CC)c1ccc(NC(=O)c2cnn(-c3ccc(Br)cc3)c2)c(C)c1 | -10% | 1.66 |
| O=C(c1c[nH]nc1-c1ccccc1)N1Cc2cnn(CCO)c2C1 | -3% | 0.4 |
| Cn1nncc1C1(O)CN(C(=O)c2ccnn2CC(F)(F)F)C1 | 0% | 0.03 |
| COc1ccc2c(C)c(C(=O)N3C[C@H]4CC[C@@H](C3)[C@H]4N)oc2c1OC | 8% | -1.04 |
| Cc1ccc(NS(=O)(=O)c2c(C)sc(C)c2-c2cc(C)no2)cc1 | -19% | 3.21 |
| N#CC1(c2nc3ccccc3s2)CC1 | -1% | 0.16 |
| CCNC(=O)CN1C(=O)[C@@H]2CCCCN2c2ccc(C(=O)N3CCCCC3)cc21 | -8% | 1.24 |
| COCc1n[nH]c(-c2csc3c2CCCC3)n1 | -12% | 1.68 |
| CCc1cnc(C)nc1-c1cccc(C(=O)N(CC)Cc2nc(C)no2)c1 | -21% | 1.84 |
| COCCn1cc(Nc2ccccn2)cn1 | 11% | -1.92 |
| CC(C)N[C@H]1CCCN(C(=O)C(C)(C)Nc2ccccc2)C1 | -13% | 1.76 |
| O=c1c2c([nH]c3nc(NCc4ccccc4Cl)nn13)CCCC2 | -13% | 1.11 |

| Structure (SMILES) | % Inhibition | Z score |
| --- | --- | --- |
| Clc1cnccc1NCc1ccccc1CN1CCCCC1 | -7% | 0.92 |
| Cn1ncc(N2CCC[C@H](CC(=O)Nc3ccc(F)cc3F)C2)cc1=O | -1% | 0.11 |
| C[C@@H](Cc1noc(-c2ccc3c(c2)N=S=N3)n1)N(C)C(=O)OC(C)(C)C | -9% | 1.22 |
| CC(C)(C)OC(=O)NC1CCOC2(CCOC2)C1 (stereo not given) | -14% | 1.81 |
| CN(C)c1ccc2c(c1)CN(C(=O)[C@@H]1COc3ccccc3O1)CCO2 | 8% | -1.6 |
| Cn1nc(CNC(=O)Cc2cccs2)c2c1CCCC2 | -5% | 1.01 |
| CCn1nc(CO)c2c1CCN(C(=O)c1ccc3nccn3c1)C2 | -26% | 2.8 |
| COc1cc([C@H]2CC(=O)Nc3cccc4c3c2cn4Cc2ccccc2)ccc1OCCc1ccc2c(c1)CCO2 | 0% | 0.07 |
| Cc1ccc(Cn2c(=O)c(C(=O)NCC3CC3)nn(-c3ccc(Cl)cc3)c2=O)cc1 | -10% | 1.02 |
| O=C(NC1C2CCc3ccccc3C21)N1CCOC(Cn2cccn2)C1 (stereo not given) | -10% | 1.62 |
| CC(C)C(C)(C)CNC(=O)NCCn1cccn1 | 0% | -0.05 |
| Cc1nc(C)c(CNC(=O)Nc2ccc(C(C)(C)C#N)cc2)s1 | -7% | 0.8 |
| O=S(=O)(N1CCN(c2ccccc2)CC1)C(F)(F)c1nc2ccccc2s1 | 1% | -0.26 |
| Cc1nnc(C(=O)N2CC(C)(O)C2)s1 | 6% | -0.75 |
| O=C(c1cccc(F)c1)N1CCN(c2cnn3c(C4CC4)nnc3c2)CC1 | 28% | -3.2 |
| Cc1cnn(CC(=O)NCc2csc(N)n2)c1 | -12% | 2.3 |
| C[C@]1(C(F)(F)F)c2ccccc2CCN1C(=O)Cn1cnnn1 | -3% | 0.55 |
| Cc1ccc(CNC(=O)c2cccc(N3C(=O)[C@@H](C)CS3(=O)=O)c2)cc1 | -8% | 0.98 |
| CCOc1ccc(-c2cc3nc(C4CCN(C(=O)OC(C)(C)C)CC4)c(C(=O)Nc4ccc(OC(F)(F)F)cc4)cn3n2)cc1 | -10% | 1.63 |
